# According to PubChem BioAssay AID504832 (National Center for Advancing Translational Sciences (NCATS), 2011):
# Out of some 310,000 compounds screened, about 18,000 (5.8%) were called active. The shares of active, inactive and inconclusive entries below differ from those in the screen. Calls follow the shape of the dose curve; as a rule, active = well fitted inhibition curve with a large enough effect; inconclusive = small, poorly fitted or top-dose-only effect, or another doubt; inactive = no such curve, though single readings can be large or run the other way. No potency is given beside an inconclusive call; the fits are too rough.
# Test: Primary qHTS for delayed death inhibitors of the malarial parasite plastid, 48 hour incubation
# Details: P. falciparum luciferase growth in erythrocytes; series mostly up to 28.7 µM
# In short: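 Luciferase-expressing parasites in RBCs, 2% Hct / 0.1% parasitemia final; RPMI 1640 + 0.5% Albumax; 37 C, 5% CO2, one generation; luminescence read-out, lower signal = inhibition.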
# Potency is read from the fitted curve at half-maximal effect; tags tell the direction and shape of the fitted curve.
row,Structure (SMILES),Potency
1,Cc1ccc(S(=O)(=O)N(C)CC(O)Cn2c3ccccc3c3ccccc32)cc1 (stereo not given),"inconclusive [inhibitor, single point]"
2,CC1Cc2cc(-c3csc(NC(=O)Cc4cccs4)n3)ccc2N1S(C)(=O)=O (stereo not given),active: 13.1 µM
3,Cn1c(CNC(=O)OC(C)(C)C)nnc1SCc1c(Cl)cccc1Cl,"inconclusive [inhibitor, partial curve, poor fit]"
4,Cc1ccc(C(C)NC(=S)NCc2ccc(F)cc2)cc1C (stereo not given),inactive
5,O=C(O)c1ccc(N2CCCCC2)cc1O,inactive
6,CC(=O)c1cccc(N2Cc3ccccc3C2=NC(=O)CCl)c1,inactive
7,N#Cc1nc(-c2ccc(OCc3ccccc3)cc2)oc1NCCCn1ccnc1,active: 2.94 µM
8,CC1=C(C(N)=O)C(c2cccnc2)n2nc(-c3cccc(C)c3)nc2N1 (stereo not given),"inconclusive [inhibitor, full curve, poor fit]"
9,CCOC(=O)C1CCN(C(c2cccc(F)c2)c2sc3nc(C)nn3c2O)CC1 (stereo not given),"inconclusive [inhibitor, single point]"
10,COc1ccccc1OCC(=O)Nc1ccc(S(=O)(=O)N(C)c2ccccc2)cc1,"inconclusive [inhibitor, partial curve, poor fit]"
11,S=c1nc(COc2ccccc2)[nH]c2ccccc12,"inconclusive [inhibitor, single point]"
12,CCN(CC)c1ccc(S(=O)(=O)N2CCOCC2)cc1NC(=O)CN1C(=O)NC2(CCCC2)C1=O,"inconclusive [inhibitor, partial curve, poor fit]"
13,CCOC(=O)c1cnc(C(C)(C)C)[nH]c1=O,inactive
14,O=C(c1cc2ccccc2o1)N1CCN(S(=O)(=O)c2ccccc2)CC1,"inconclusive [inhibitor, partial curve]"
15,COc1ccc(OC)c(C2N(c3cc(C)on3)C(=O)C3CCCN32)c1 (stereo not given),inactive
16,CC(=O)c1sc(NC(=O)CCS(=O)(=O)c2ccc(C)cc2)nc1C,"inconclusive [inhibitor, partial curve]"
17,COc1ccc([C@H]2CC(=O)C=C(c3ccc(C)cc3)C2)cc1OC,"inconclusive [inhibitor, single point]"
18,CC(C)(C)SCCNC(=O)CN(c1ccc(F)c(Cl)c1)S(C)(=O)=O,"inconclusive [inhibitor, partial curve, poor fit]"
19,Nc1ccc(O)c(-c2nc3ccccc3s2)c1,"inconclusive [inhibitor, full curve, poor fit]"
20,CC(=O)c1ccc(OCc2cc(C(=O)NCC3CCCCO3)no2)cc1 (stereo not given),inactive
21,O=C(Cn1c(SCC(=O)NC2CCCC2)nnc1-c1ccncc1)Nc1ccc2c(c1)OCO2,"inconclusive [inhibitor, single point]"
22,Cc1cccc(C(=O)NCCNC(=O)c2cnccn2)c1,"inconclusive [inhibitor, full curve, poor fit]"
23,COc1cc(/C=C/C(=O)c2c(O)ccc3c(C)cc(=O)oc23)ccc1O,"inconclusive [inhibitor, single point]"
24,Cc1ccc(O)c(CCc2ccccc2)n1,"inconclusive [inhibitor, single point]"

row,Structure (SMILES),Potency
1,COc1ccc(-n2c(Cc3cccn3C)nnc2SCC(=O)Nc2ccc(F)cc2F)cc1,"inconclusive [inhibitor, partial curve, poor fit]"
2,C#CCNC(=O)C1=C[C@H](c2csc3ccccc23)[C@@H](CCCO)[C@H](OCC)O1,inactive
3,COC(=O)C1=C(C(=O)OC)[C@@H]2N(Cc3ccccc3)c3ccccc3[C@@]23C[C@@H](C(=O)OC)N(C(=O)c2cccs2)C3=N1,inactive
4,COc1ccc(N2CCN(CCCNC(=O)Cn3c(=O)c4cccn4c4cccnc43)CC2)cc1,"inconclusive [inhibitor, partial curve, poor fit]"
5,COc1ccc(CNC(=O)C(=O)NCCCn2ccnc2)cc1,inactive
6,Cc1ccc(NC(=O)C2CCN(S(=O)(=O)c3ccc4c(c3)NC(=O)CO4)CC2)cc1,"inconclusive [inhibitor, partial curve]"
7,O=S(=O)(NCC1CCN(Cc2ccccc2)CC1)c1ccccc1C(F)(F)F,inactive
8,S=C1Cc2ccccc2N1,"inconclusive [inhibitor, single point]"
9,Cc1ccc(/C=C2\SC(N3CCCC3)=NC2=O)cc1,"inconclusive [inhibitor, partial curve]"
10,CCOc1ccc(-c2nc(C)c(C(C)=O)n2O)cc1,inactive
11,O=C1CC[C@H](OCc2ccccc2)CCN1[C@H](CSc1ccccc1)Cc1ccccc1,"inconclusive [inhibitor, partial curve, poor fit]"
12,COc1ccc(CCNC(=O)c2nnc(CS(=O)(=O)c3ccccc3)o2)cc1OC,active: 2.33 µM
13,CCCCCN(C(=O)CCC(=O)OCC(=O)c1ccc(F)c(F)c1)c1c(N)n(CCCC)c(=O)[nH]c1=O,"inconclusive [inhibitor, partial curve, poor fit]"
14,Cn1cccc1Cc1nnc(SCC(=O)N2CCOCC2)n1-c1ccc(F)cc1,inactive
15,N#CCCn1nc(-c2ccc([N+](=O)[O-])cc2)cc1Nc1ccccc1NC(=O)C(F)(F)F,active: 10.4 µM
16,CCOC(=S)NC(=O)c1sc2ccccc2c1Cl,inactive
17,N#Cc1c(N)nc2c3c(sc(=N)c2c1N)NC(=O)CC3c1ccccc1Cl (stereo not given),"inconclusive [inhibitor, full curve, poor fit]"
18,CCN(CC)S(=O)(=O)c1ccc(N2CC(C(=O)NCCc3c[nH]c4ccccc34)CC2=O)cc1 (stereo not given),"inconclusive [inhibitor, partial curve]"
19,Cc1ccc(NC2c3ncccc3C(=O)N2Cc2ccco2)c(C)c1 (stereo not given),"inconclusive [inhibitor, full curve, poor fit]"
20,O=C(NNC(=S)Nc1cccc(Cl)c1)c1ccccc1,inactive
21,COc1cccc(OC)c1OCCCN1CCC(Cc2ccccc2)CC1,"inconclusive [inhibitor, single point]"
22,Cc1cccc(-c2nnc(SCC(=O)C(C)(C)C)n2C)c1,"inconclusive [inhibitor, partial curve, poor fit]"
23,COc1cccc(C(=O)NCc2ccco2)c1OC,"inconclusive [inhibitor, full curve, poor fit]"
24,COc1ccc(OCC(=O)N2c3ccccc3CCc3ccccc32)cc1,"inconclusive [inhibitor, partial curve, poor fit]"

row,Structure (SMILES),Potency
1,CCOC(=O)c1c(C)[nH]c(C(=O)COC(=O)C23CC4CC(CC(Cl)(C4)C2)C3)c1C,"inconclusive [inhibitor, partial curve, poor fit]"
2,CCCc1c(C)nc2c(OC)cccc2c1SCC(=O)O,"inconclusive [inhibitor, partial curve, poor fit]"
3,Cc1cc(C)nc(SC2=CS(=O)(=O)c3ccccc32)n1,"inconclusive [inhibitor, partial curve]"
4,CN1CCN(c2ccc(NC(=O)C(C)(c3ccccc3)c3ccccc3)cc2)CC1,active: 13.1 µM
5,O=C(CSc1nc(-c2ccc(F)cc2)cs1)N1CCN(C(=O)c2ccco2)CC1,"inconclusive [inhibitor, partial curve, poor fit]"
6,O=C(N/N=C1\SCC(=O)N1CCc1ccccc1)c1cccs1,inactive
7,COc1cccc(CNC(=O)C2CCN(S(=O)(=O)c3ccc(Br)s3)CC2)c1,"inconclusive [inhibitor, single point]"
8,CCCCn1c(SCC(=O)Nc2cccc(OC)c2)nc2ccc(N3CCOCC3)cc2c1=O,active: 9.28 µM
9,Cc1cc(Br)cc(Cl)c1OCC(=O)N1CCN(C(=O)c2ccco2)CC1,inactive
10,COC(=O)Cn1cnc2c(nnn2-c2ccc(F)cc2)c1=O,inactive
11,C/C=C/COC(=O)c1[nH]c2c(c1C)C(=O)CC(c1ccco1)C2 (stereo not given),active: 1.47 µM
12,CC(C)c1ccc(-c2noc(C3CCCN(S(C)(=O)=O)C3)n2)cc1 (stereo not given),inactive
13,COC(=O)CSc1nc2sc3c(c2c(=O)n1-c1ccc(OC)cc1)CCN(C)C3,active: 6.57 µM
14,O=C(CSCc1cccc(Br)c1)N1CCOCC1,inactive
15,CCC(C)c1ccc(O)c(NC(=S)NC(=O)c2cccnc2)c1 (stereo not given),"inconclusive [inhibitor, single point]"
16,COc1ccc(N2CCN(C(c3ccc4ncccc4c3)c3nnnn3C(C)(C)C)CC2)cc1 (stereo not given),"inconclusive [inhibitor, partial curve]"
17,CCOc1ccc(NC(=O)C2CCC(CNc3c(N4CCC(C)CC4)c(=O)c3=O)CC2)cc1 (stereo not given),active: 4.15 µM
18,COc1ccc(S(=O)(=O)Nc2ccccc2-c2nc3ccccc3[nH]c2=O)cc1,inactive
19,COc1cc2[nH]c(=O)n(CCCCCC(=O)NCCCN3CCCC3=O)c(=O)c2cc1OC,"inconclusive [inhibitor, partial curve]"
20,Cc1ccc(C)c(NS(=O)(=O)c2cc(C(=O)Nc3ccccc3-c3ccccc3)ccc2C)c1,"inconclusive [inhibitor, single point]"
21,NCCc1c[nH]c2ccc(C(N)=O)cc12,"inconclusive [inhibitor, single point]"
22,O=C(CN(Cc1ccco1)C(=O)CCC(=O)Nc1ccccn1)NCCc1ccccc1,inactive
